Data: the supplement of paper PMC8728848
This is one part of the list.

Legend:
Assay in all cases: glycan array binding signal (z-score within array); higher = stronger binding
Settings in all cases: glycan notation: IUPAC condensed, linker removed
GlcNAc(b1-3)Fuc = target: GlcNAc(b1-3)Fuc
Outline: (§1)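 Glycan array binding is given as a within-array Z-score, which can be read as non-binding when negative. The arrays, 3228 of them, came from the Consortium for Functional Glycomics database and were retained only where the protein sequence was available. Z-scores were averaged across arrays of the same protein sequence at different concentrations or buffers and across linkers.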

GlcNAc(b1-3)Gal = target: GlcNAc(b1-3)Gal
Outline: as §1

[1] = target: GlcNAc(b1-3)Gal(b1-3)GalNAc
Outline: as §1

GlcNAc(b1-3)Gal(b1-4)Glc = target: GlcNAc(b1-3)Gal(b1-4)Glc
Outline: as §1

[2] = target: GlcNAc(b1-3)Gal(b1-4)GlcNAc
Outline: as §1

[3] = target: GlcNAc(b1-3)Gal(b1-4)GlcNAc(b1-2)Man(a1-3)[GlcNAc(b1-3)Gal(b1-4)GlcNAc(b1-2)Man(a1-6)]Man(b1-4)GlcNAc(b1-4)GlcNAc
Outline: as §1

[4] = target: GlcNAc(b1-3)Gal(b1-4)GlcNAc(b1-2)Man(a1-3)[GlcNAc(b1-3)Gal(b1-4)GlcNAc(b1-2)Man(a1-6)]Man(b1-4)GlcNAc(b1-4)[Fuc(a1-6)]GlcNAc
Outline: as §1

[5] = target: GlcNAc(b1-3)Gal(b1-4)GlcNAc(b1-2)[GlcNAc(b1-3)Gal(b1-4)GlcNAc(b1-6)]Man(a1-6)[GlcNAc(b1-3)Gal(b1-4)GlcNAc(b1-2)Man(a1-3)]Man(b1-4)GlcNAc(b1-4)GlcNAc
Outline: as §1

[6] = target: GlcNAc(b1-3)Gal(b1-4)GlcNAc(b1-3)Gal(b1-4)GlcNAc
Outline: as §1

[7] = target: GlcNAc(b1-3)Gal(b1-4)GlcNAc(b1-3)Gal(b1-4)GlcNAc(b1-2)Man(a1-3)[GlcNAc(b1-3)Gal(b1-4)GlcNAc(b1-3)Gal(b1-4)GlcNAc(b1-2)Man(a1-6)]Man(b1-4)GlcNAc(b1-4)GlcNAc
Outline: as §1

[8] = target: GlcNAc(b1-3)Gal(b1-4)GlcNAc(b1-3)Gal(b1-4)GlcNAc(b1-2)Man(a1-3)[GlcNAc(b1-3)Gal(b1-4)GlcNAc(b1-3)Gal(b1-4)GlcNAc(b1-2)Man(a1-6)]Man(b1-4)GlcNAc(b1-4)[Fuc(a1-6)]GlcNAc
Outline: as §1

[9] = target: GlcNAc(b1-3)Gal(b1-4)GlcNAc(b1-3)Gal(b1-4)GlcNAc(b1-2)[GlcNAc(b1-3)Gal(b1-4)GlcNAc(b1-3)Gal(b1-4)GlcNAc(b1-6)]Man(a1-6)[GlcNAc(b1-3)Gal(b1-4)GlcNAc(b1-3)Gal(b1-4)GlcNAc(b1-2)Man(a1-3)]Man(b1-4)GlcNAc(b1-4)[Fuc(a1-6)]GlcNAc
Outline: as §1

[10] = target: GlcNAc(b1-3)Gal(b1-4)GlcNAc(b1-3)Gal(b1-4)GlcNAc(b1-3)Gal(b1-4)GlcNAc(b1-2)Man(a1-3)[GlcNAc(b1-3)Gal(b1-4)GlcNAc(b1-3)Gal(b1-4)GlcNAc(b1-3)Gal(b1-4)GlcNAc(b1-2)Man(a1-6)]Man(b1-4)GlcNAc(b1-4)GlcNAc
Outline: as §1

[11] = target: GlcNAc(b1-3)Gal(b1-4)GlcNAc(b1-3)Gal(b1-4)GlcNAc(b1-3)Gal(b1-4)GlcNAc(b1-2)Man(a1-3)[GlcNAc(b1-3)Gal(b1-4)GlcNAc(b1-3)Gal(b1-4)GlcNAc(b1-3)Gal(b1-4)GlcNAc(b1-2)Man(a1-6)]Man(b1-4)GlcNAc(b1-4)[Fuc(a1-6)]GlcNAc
Outline: as §1

[12] = target: GlcNAc(b1-3)Gal(b1-4)GlcNAc(b1-3)Gal(b1-4)GlcNAc(b1-3)Gal(b1-4)GlcNAc(b1-2)[GlcNAc(b1-3)Gal(b1-4)GlcNAc(b1-3)Gal(b1-4)GlcNAc(b1-3)Gal(b1-4)GlcNAc(b1-6)]Man(a1-6)[GlcNAc(b1-3)Gal(b1-4)GlcNAc(b1-3)Gal(b1-4)GlcNAc(b1-3)Gal(b1-4)GlcNAc(b1-2)Man(a1-3)]Man(b1-4)GlcNAc(b1-4)[Fuc(a1-6)]GlcNAc
Outline: as §1

[13] = target: GlcNAc(b1-3)Gal(b1-4)GlcNAc(b1-3)Gal(b1-4)GlcNAc(b1-3)Gal(b1-4)GlcNAc(b1-3)Gal(b1-4)GlcNAc(b1-2)Man(a1-3)[GlcNAc(b1-3)Gal(b1-4)GlcNAc(b1-3)Gal(b1-4)GlcNAc(b1-3)Gal(b1-4)GlcNAc(b1-3)Gal(b1-4)GlcNAc(b1-2)Man(a1-6)]Man(b1-4)GlcNAc(b1-4)GlcNAc
Outline: as §1

[14] = target: GlcNAc(b1-3)Gal(b1-4)GlcNAc(b1-3)Gal(b1-4)GlcNAc(b1-3)Gal(b1-4)GlcNAc(b1-3)Gal(b1-4)GlcNAc(b1-2)Man(a1-3)[GlcNAc(b1-3)Gal(b1-4)GlcNAc(b1-3)Gal(b1-4)GlcNAc(b1-3)Gal(b1-4)GlcNAc(b1-3)Gal(b1-4)GlcNAc(b1-2)Man(a1-6)]Man(b1-4)GlcNAc(b1-4)[Fuc(a1-6)]GlcNAc
Outline: as §1

[15] = target: GlcNAc(b1-3)Gal(b1-4)GlcNAc(b1-3)Gal(b1-4)GlcNAc(b1-3)Gal(b1-4)GlcNAc(b1-3)Gal(b1-4)GlcNAc(b1-2)[GlcNAc(b1-3)Gal(b1-4)GlcNAc(b1-3)Gal(b1-4)GlcNAc(b1-3)Gal(b1-4)GlcNAc(b1-3)Gal(b1-4)GlcNAc(b1-6)]Man(a1-6)[GlcNAc(b1-3)Gal(b1-4)GlcNAc(b1-3)Gal(b1-4)GlcNAc(b1-3)Gal(b1-4)GlcNAc(b1-3)Gal(b1-4)GlcNAc(b1-2)Man(a1-3)]Man(b1-4)GlcNAc(b1-4)[Fuc(a1-6)]GlcNAc
Outline: as §1

[16] = target: GlcNAc(b1-3)Gal(b1-4)GlcNAc(b1-3)Gal(b1-4)GlcNAc(b1-3)GalNAc
Outline: as §1

[17] = target: GlcNAc(b1-3)Gal(b1-4)GlcNAc(b1-3)GalNAc
Outline: as §1

[18] = target: GlcNAc(b1-3)Gal(b1-4)GlcNAc(b1-3)[GlcNAc(b1-3)Gal(b1-4)GlcNAc(b1-3)]GalNAc
Outline: as §1

[19] = target: GlcNAc(b1-3)Gal(b1-4)GlcNAc(b1-6)[Gal(b1-3)]GalNAc
Outline: as §1

[20] = target: GlcNAc(b1-3)Gal(b1-4)GlcNAc(b1-6)[GlcNAc(b1-3)Gal(b1-3)]GalNAc
Outline: as §1

[21] = target: GlcNAc(b1-3)Gal(b1-4)GlcNAc(b1-6)[GlcNAc(b1-3)]Gal(b1-4)GlcNAc
Outline: as §1

GlcNAc(b1-3)GalNAc = target: GlcNAc(b1-3)GalNAc
Outline: as §1

GlcNAc(b1-3)Man = target: GlcNAc(b1-3)Man
Outline: as §1

[22] = target: GlcNAc(b1-3)[GlcNAc(b1-4)][GlcNAc(b1-6)]GlcNAc
Outline: as §1

[23] = target: GlcNAc(b1-3)[GlcNAc(b1-6)]Gal(b1-4)GlcNAc
Outline: as §1

[24] = target: GlcNAc(b1-3)[GlcNAc(b1-6)]GalNAc
Outline: as §1

[25] = target: GlcNAc(b1-3)[GlcNAc(b1-6)]GlcNAc(b1-4)GlcNAc
Outline: as §1

[26] = target: GlcNAc(b1-4)Gal(b1-4)GlcNAc
Outline: as §1

GlcNAc(b1-4)GlcNAc = target: GlcNAc(b1-4)GlcNAc
Outline: as §1

[27] = target: GlcNAc(b1-4)GlcNAc(b1-4)GlcNAc
Outline: as §1

[28] = target: GlcNAc(b1-4)GlcNAc(b1-4)GlcNAc(b1-4)GlcNAc(b1-4)GlcNAc
Outline: as §1

[29] = target: GlcNAc(b1-4)GlcNAc(b1-4)GlcNAc(b1-4)GlcNAc(b1-4)GlcNAc(b1-4)GlcNAc
Outline: as §1

[30] = target: GlcNAc(b1-4)[GlcNAc(b1-6)]GalNAc
Outline: as §1

[31] = target: GlcNAc(b1-6)Gal(b1-4)GlcNAc
Outline: as §1

B1: UDA (Urtica dioica), P11218 (protein)
chain: MMMRFLSAVVIMSSAMAVGLVSAQRCGSQGGGGTCPALWCCSIWGWCGDSEPYCGRTCENKCWSGERSDHRCGAAVGNPPCGQDRCCSVHGWCGGGNDYCSGSKCQYRCSSSVRGPRVALSGNSTANSIGNVVVTEPLFDQMFSHRKDCPSQGFYSYHSFLVAAESFPAFGTIGDVATRKREVAAFLAHISQATSGERSDVENPHAWGLCHINTTTVTENDFCTSSDWPCAAGKKYSPRGPIQLTHNFNYGLAGQAIGEDLIQNPDLVEKDPIISFKTALWFWMSQHDNKPSCHDIVLNANSAANRIPNKGVIGNIISRAFGHDDFAVRSSSIGFYKRYCDMLGVSYGHDLKYWFDNTPSSEFQRIQMRVAA
glycan array binding signal (z-score) (GlcNAc(b1-3)Fuc): -0.176
glycan array binding signal (z-score) (GlcNAc(b1-3)Gal): -0.183
glycan array binding signal (z-score) [1]: -0.181
glycan array binding signal (z-score) (GlcNAc(b1-3)Gal(b1-4)Glc): -0.191
glycan array binding signal (z-score) [2]: -0.111
glycan array binding signal (z-score) [3]: -0.178
glycan array binding signal (z-score) [4]: -0.134
glycan array binding signal (z-score) [5]: -0.159
glycan array binding signal (z-score) [6]: -0.098
glycan array binding signal (z-score) [7]: -0.054
glycan array binding signal (z-score) [8]: 0.026
glycan array binding signal (z-score) [9]: -0.176
glycan array binding signal (z-score) [10]: -0.123
glycan array binding signal (z-score) [11]: -0.03
glycan array binding signal (z-score) [12]: -0.154
glycan array binding signal (z-score) [13]: 0.013
glycan array binding signal (z-score) [14]: 0.09
glycan array binding signal (z-score) [15]: -0.085
glycan array binding signal (z-score) [16]: -0.187
glycan array binding signal (z-score) [17]: -0.182
glycan array binding signal (z-score) [18]: -0.174
glycan array binding signal (z-score) [19]: -0.175
glycan array binding signal (z-score) [20]: -0.183
glycan array binding signal (z-score) [21]: -0.098
glycan array binding signal (z-score) (GlcNAc(b1-3)GalNAc): -0.175
glycan array binding signal (z-score) (GlcNAc(b1-3)Man): -0.17
glycan array binding signal (z-score) [22]: -0.181
glycan array binding signal (z-score) [23]: -0.178
glycan array binding signal (z-score) [24]: -0.183
glycan array binding signal (z-score) [25]: -0.248
glycan array binding signal (z-score) [26]: 0.062
glycan array binding signal (z-score) (GlcNAc(b1-4)GlcNAc): -0.121
glycan array binding signal (z-score) [27]: 2.6
glycan array binding signal (z-score) [28]: 2.39
glycan array binding signal (z-score) [29]: 1.58
glycan array binding signal (z-score) [30]: -0.189
glycan array binding signal (z-score) [31]: -0.173
